± gives the standard deviation of the averaged measurements. The list shows a part of the results.
These sequences were tested on PfAP2-LT AP2 domain (GST-tagged) (assay: gcPBM binding intensity (ln(normalized median fluorescence intensity)); higher = stronger DNA binding).
Method in brief: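 Plasmodium falciparum DNA-binding domains carrying a GST tag were expressed in E. coli and applied for 1 h, at about 25 μg on average, to an Agilent 4 × 180k array. The array held primer-extended double-stranded 36-bp intergenic genomic probes together with negative controls, and binding took place in 1× PBS with 1% milk, 0.2 mg/ml BSA, 0.5% salmon testes DNA and 0.03% Triton X-100. An Alexa488 anti-GST antibody detected bound protein, and the array was scanned at 488 nm. Binding intensity is taken as the highest Masliner-normalised natural-log median intensity across replicate spots of either probe orientation.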

| Sequence | gcPBM binding intensity (ln) |
| --- | --- |
| TAAATAAATACATACACACACATACATATATATATA [CACACA_site3129] | 9.62 ± 0.36 |
| TTATTGTTTATTAAATGTACAGATTCGTTAAAATTA [XGTACX_site3041] | 8.37 ± 0.38 |
| TTTTTATTGAGAACAGTGCAAATAACAAAAAAAAAA | 8.66 ± 0.52 |
| ATTTGGCATAAACACACACACACACCCACCCACATA [CACACA_site8096] | 10.1 ± 0.37 |
| TTATAATAAATATGAAGTACTATAAATATGGTATAT [XGTACX_site5448] | 8.72 ± 0.41 |
| CACTAAAATGGACACACACACACACCGATATATATA [CACACA_site6139] | 10.1 ± 0.23 |
| AATAAATATAGGAATACACACAATATAAATGTATTG [CACACA_site3366] | 9.07 ± 0.4 |
| ATCGCATAAAGACAAGAACACACATATATATTGTAG [CACACA_site9229] | 9.03 ± 0.37 |
| CATATATAAAATATATGTACTTATAGAACATAATTT [XGTACX_site1936] | 8.57 ± 0.42 |
| CATTTTTTAAGCATCACACACGAAAGAACAAAGTGG [CACACA_site4755] | 8.94 ± 0.35 |
| TTTTTTTTTTTAAGGTGTACAATAAAAATTTATGCA [XGTACX_site8860] | 8.23 ± 0.35 |
| TGGAAAATTATAAGGTGTACATATAAGCTATTATAT [XGTACX_site118] | 8.76 ± 0.47 |
| AGTATACATTCATTTTGTACTCAATGATTTGATAAC [XGTACX_site6787] | 8.81 ± 0.37 |
| ATAATTATATTCCATACACACATATATTTAAAGGTT [CACACA_site2957] | 8.96 ± 0.32 |
| TAATAAGTATAAAATAGTACATATAAATATATCAAA [XGTACX_site8834] | 8.81 ± 0.39 |
| AGGAATAAATAATTAACACACACAATCTTTTTTTTT [CACACA_site9027] | 9.13 ± 0.35 |
| ACTTTTTCACATAAAAATGATCCGATTAGTAATAAT [XGTACX_negctrl_site248] | 8.51 ± 0.26 |
| AAATAAAAAAACTATTGTACTGAATACAAATTAAAT [XGTACX_site3793] | 8.73 ± 0.42 |
| ATAATATTAGTAAACACACTCAAATTATATATGATA [CACACA_site5721] | 8.68 ± 0.43 |
| CTGAGGAAGCTAATTACACACATGCATATTTTTTTT [CACACA_site2177] | 9.08 ± 0.28 |
| ATTATCTTCAAGTATGTACACACTATATATAATAAA [CACACA_site2441] | 8.9 ± 0.47 |
| ATCAAACAAAAAATAAAAAAATGCGACATGTGTACA [TGCATGCA_negctrl_site164] | 8.99 ± 0.49 |

| Sequence | gcPBM binding intensity (ln) |
| --- | --- |
| TATAAAATTTAAATTATACACACTTAAGTAACATCA [CACACA_site531] | 8.68 ± 0.38 |
| TTAATATTTTTAATTTGTACATATAATTAAATCTCT [XGTACX_site1736] | 8.53 ± 0.51 |
| GAAAATTATGTATATTGTACAAATATTATATTAAAT [XGTACX_site2467] | 8.68 ± 0.51 |
| TTGAATACATATATATGTACATATTCTATGGTTAGA [XGTACX_site4088] | 8.86 ± 0.36 |
| CAAGGACAATTTACAAACATAATATATGTATATATA [TGCATGCA_negctrl_site5] | 8.66 ± 0.55 |
| AATATATATTCATGTGTACACACAAAAAAAAATAAA [CACACA_site8690] | 9.56 ± 0.4 |
| CCTATAATTAGGGGTAGTACACAAAAAAAAAAAAAA [XGTACX_site6396] | 8.59 ± 0.52 |
| TTAAAAAAGAATTGTGCACACACAAAAAATGTTCAT [CACACA_site1102] | 9.12 ± 0.45 |
| AATTCCTTATACAATTGTACATAAAAAGAATAAAAA [XGTACX_site1343] | 8.6 ± 0.42 |
| TTTTTTTTACATGAACGTACATAATATATTTTATAA [XGTACX_site5249] | 8.45 ± 0.41 |
| TGGTGTTTTTTTTAATGTACTTATAAAATAATACAT [XGTACX_site6574] | 8.7 ± 0.32 |
| ATGTAAAAATAAAGATGTACATGTATATATATATAT [XGTACX_site5193] | 9.88 ± 0.46 |
| AATCAAATATTTAAATGTACTCAAGAAGGCTTAATC [XGTACX_site6907] | 8.74 ± 0.29 |
| AAAAAATATTTTAGTGGTACATTTGTAGCTCTCAAA [XGTACX_site4859] | 8.51 ± 0.52 |
| ATAACATGAACATATGTTACACAAACATACATACAT [XGTACX_negctrl_site365] | 9.13 ± 0.26 |
| TATGAAGACACAAATACACACACTCAAAAAAAAAAA [CACACA_site2660] | 9.41 ± 0.44 |
| AAAAATATAATATAATGTACACAAAAAAAAAAAATC [XGTACX_site1427] | 8.98 ± 0.54 |
| GAAAAAAAAAAAAAAAAACACACGGTACATTCAAAG [CACACA_site303] | 8.83 ± 0.55 |
| AAAAAGAAGATGCAAACATGCACACAGAAAAAAAAA [TGCATGCA_site375] | 9.09 ± 0.59 |
| AAAAAAAAAAAAATTACACACATACAGATAATAATA [CACACA_site5244] | 9.07 ± 0.4 |
| TAATTTTTTTTTTTTTTTTTTTTTTTTTTTTTTTTA [CACACA_negctrl_site1218] | 8.16 ± 0.55 |
| TTTTCATTCCACAACGCACACCCATTTAAAAAAAAA [CACACA_site1377] | 8.81 ± 0.26 |

— the supplement of paper PMC11417369
